Data reported in patent US5475132A, “Antifungal agents based on amides containing a phenyl group” (Rhone-Poulenc Agrochimie, priority 1988, dated 1995).

Each molecule was assayed on Plasmopara viticola (assay: Example B2: treatment of vine mildew (Plasmopara viticola) on vine cuttings). Settings: 192 h, 330 ppm (0.33 g/l), vine cuttings, 8 days after infection, read-out: inhibition of the development of the mould.
Protocol: Treatment of vine mildew (Plasmopara viticola)
Vine (Vitis vinifera) cuttings of the Chardonnay variety are cultivated in pots. When these plants are 2 months old (8 to 10 leaf stage, height 20 to 30 cm) they are treated in the same manner as in Example B1.
After drying for 24 hours, each plant is infected by spraying with an aqueous suspension of spores of Plasmopara viticola which is responsible for vine mildew, at the rate of about 5 ml/plant (that is about 100,000 spores per plant).
After this infection, the vine plants are incubated for two days at about 18° C. in a saturated atmosphere, then for five days at about 20°-22° C. and 90-100% relative humidity.
Eight days after infection, the results obtained in the case of the plants treated with the active material to be tested are compared with those obtained in the case of plants used as controls.

Structure (SMILES)	inhibition at 330 ppm [%]
COc1ccc(-c2c(C(=O)N3CCOCC3)sc3c(N)cccc23)cc1OC [Compound 121]	≥ 80
O=C(c1ccc(-c2ccc(F)cc2)cc1-c1ccc2c(c1)OCO2)N1CCOCC1 [Compound 229]	≥ 80
COc1ccc(-c2nc(-c3ccc(Cl)cc3)ccc2C(=O)N(C)Cc2ccco2)cc1OC [Compound 378]	≥ 80
COc1ccc(-c2nc(-c3cccc4ccccc34)ccc2C(=O)N2CCOCC2)cc1OC [Compound 3114]	≥ 80
CCN(C)C(=O)c1ccc(-c2ccc(Br)cc2)nc1-c1ccc(OC)c(OC)c1 [Compound 390]	≥ 80
COc1ccc(-c2ccc(C(=O)N3CCOCC3)c(-c3ccc(OC)c(OC)c3)c2)cc1OC [Compound 234]	≥ 80
COc1ccc(-c2oc(-c3ccc(Cl)cc3)cc2C(=O)N2CCOCC2)cc1OC [Compound 616]	≥ 80
COc1ccc(-c2nc(-c3ccc(Cl)cc3)ccc2C(=O)N(C)CCOC(C)=O)cc1OC [Compound 397]	≥ 80
COCCN(C)C(=O)c1ccc(-c2ccc(C#N)cc2)nc1-c1ccc(OC)c(OC)c1 [Compound 3100]	≥ 80
COCCN(C)C(=O)c1ccc(-c2ccccc2)nc1-c1ccc(OC)c(OC)c1 [Compound 354]	≥ 80
COCCN(C)C(=O)c1ccc(Cl)cc1-c1ccc(OC)c(OC)c1 [Compound 210]	≥ 80
COCCN(C)C(=O)c1sc2ccccc2c1-c1ccc(OC)c(OC)c1 [Compound 158]	≥ 80
COc1ccc(-c2nc(Sc3ccc(Cl)c(Cl)c3)ncc2C(=O)N2CCOCC2)cc1OC [Compound 450]	≥ 80
COc1ccc(-c2c(C(=O)N3CCOCC3)sc3cc(Cl)ccc23)cc1OC [Compound 125]	≥ 80
CCN(CC)C(=O)c1cnn(-c2ccc(Cl)cc2)c1-c1ccc(OC)c(OC)c1 [Compound 612, 4-(N,N-diethylaminocarbonyl)-2-(4-chlorophenyl)-3-(3,4-dimethoxyphenyl)pyrazole]	≥ 80
COc1ccc(-c2c(C(=O)N3CCOCC3)sc3ccc(NC(=O)C(F)(F)F)cc23)cc1OC [Compound 116]	≥ 80
COc1ccc(-c2nc(-c3ccccc3)ccc2C(=O)N(C)CCC#N)cc1OC [Compound 387]	≥ 80
COc1ccc(-c2c(C(=O)N(C)C)sc3ccccc23)cc1OC [Compound 155]	≥ 80
COCCN(CCOC)C(=O)c1sc2ccc(F)cc2c1-c1ccc(OC)c(OC)c1 [Compound 170]	≥ 80
COCCN(C)C(=O)c1ccc(-c2ccsc2)nc1-c1ccc(OC)c(OC)c1 [Compound 3117]	≥ 80
COc1ccc(-c2c(C(=O)N3CCOCC3)sc3ccc(I)cc23)cc1OC [Compound 101, 2-(4-morpholinocarbonyl)-5-iodo-3-(3,4-dimethoxyphenyl)benzothiophene]	≥ 80
COc1ccc(-c2nc(-c3ccco3)ccc2C(=O)N2CCOCC2)cc1OC [Compound 3116]	≥ 80
COc1ccc(-c2c(C(=O)N3CCOCC3)cnn2-c2ccccc2)cc1OC [Compound 623]	≥ 80
COc1ccc(-c2c(C(=O)N3CCOCC3)sc3ccc(NC(C)=O)cc23)cc1OC [Compound 115]	≥ 80
COc1ccc(-c2c(C(=O)N3CCOCC3)sc3ccc(Br)cc23)cc1OC [Compound 114]	≥ 80
CCN(CC)C(=O)c1sc2ccccc2c1-c1ccc(OC)c(OC)c1 [Compound 107, 2-(N,N-Diethylcarboxamide)-3-(3,4-dimethoxyphenyl)benzothiophene]	≥ 80
COc1ccc(-c2nc(-c3ccc(Br)cc3)ccc2C(=O)N(C)CCOC(C)=O)cc1OC [Compound 366]	≥ 80
COc1ccc(-c2nc(-c3ccc(F)cc3)c(C)cc2C(=O)N2CCOCC2)cc1OC [Compound 368]	≥ 80

Same assay, conditions: 192 h, read-out: inhibition of the development of the mould

Structure (SMILES)	inhibition at 330 ppm [%]
COc1ccc(-c2c(C(=O)N3CCC(=O)CC3)sc3ccccc23)cc1OC [Compound 162]	≥ 80
